The whole screen tested about 150,000 compounds, of which about 540 (0.36%) showed an effect of 50% or more. This is one part of the list.
tested on: Plasmodium falciparum; assay: Primary screen in NF54 nanoGlo assay, in single point, at 2uM, 72h; a lower Z score goes with more inhibition; type: functional, Erythrocyte; details: timepoint 72 hour

SMILES | % Inhibition [%] | Z score
COC1CC(NC(=O)C2(OC)CCOCC2)C1(C)C (configuration not stated) | -21 | 4.13
CCN(Cc1cc2ccc(C)cc2[nH]c1=O)C(=O)C1CCCCC1 | 28 | -3.16
COc1ccccc1N1CC[C@H](C)N(Cc2ncc(-c3ccccc3)o2)CC1 | -19 | 2.01
CCCn1ccnc1CN1CCCn2nc(CNC(=O)N(C)C)cc2C1 | -12 | 1.2
N#Cc1cc(Cl)c(C(=O)O)c(Cl)c1 | -14 | 1.78
CN(Cc1ccco1)S(=O)(=O)c1ccc(-c2ccc(=O)[nH]n2)o1 | -3 | 0.64
C=CCNC(=O)c1cccc(S(=O)(=O)N[C@@H](C)CN(CC)CC)c1 | -4 | 0.33
CCCc1noc(CNc2cc(F)ccc2OCC2CC2)n1 | -7 | 0.97
O=C(Nc1ccn(CC(F)F)n1)c1cscn1 | -11 | 2.18
CCOC(=O)N1CCN(Cc2cc(O)c3cccc(Cl)c3n2)CC1 | -12 | 1.18
COC(=O)[C@@H]1C[C@@H](O)CN1CC(=O)Nc1ccc(C)cc1Cl | -3 | 0.21
Cn1c(=O)c2c(n(C)c1=O)n(CC(=O)NC(C)(C)C)c(=O)n2C | -12 | 1.41
CC(=O)Nc1cccnc1NC(=O)[C@@H]1CC[C@H](CN2CCOCC2)O1 | -10 | 1.85
CC1=CCCC(C)C1CNCc1cccc(CS(C)(=O)=O)c1 (configuration not stated) | 2 | -0.22
Cc1ccc(CN2CCC3(CC2)c2nc[nH]c2CCN3C(=O)C2CCC2)cc1C | -14 | 1.47
CCC(N)C(=O)NC(C)c1ccc(Cl)s1 (configuration not stated) | -12 | 1.66
Cc1cc(CS(=O)(=O)N2CCN(Cc3ccccn3)CC2)no1 | -6 | 0.72
CC(c1ncc(Br)cn1)N1CCC(NS(C)(=O)=O)C1 (configuration not stated) | -11 | 1.59
Cc1cc(C)cc(NC(=O)Nc2nnc3ccccn23)c1 | -6 | 0.68

SMILES | % Inhibition [%] | Z score
Cn1ccc(C(=O)N[C@@H](Cc2ccncc2)C(=O)OC(C)(C)C)n1 | -6 | 0.88
Cc1nc(-c2ccncc2)nc(Nc2cn[nH]c2)c1C | -7 | 0.68
CC1(C)CN(C(=O)Nc2nc3ccccc3s2)CC[S@@+]1[O-] | -7 | 0.86
Cc1c[nH]c(CN2CCN(c3ncccn3)CC2)c(C)c1=O | -9 | 1.18
C[C@H]1CN(C(=O)Nc2ccncn2)CCCO1 | 14 | -1.4
CCc1noc(NC(C)=O)c1-c1ccc(OC)c(S(=O)(=O)NCc2ccc(C)cc2)c1 | -1 | 0.12
CCc1cc(N2CCC[C@H](c3nnc(CO)n3C)C2)nc(CC)n1 | -1 | 0.09
C[C@@]1(C(F)F)CN(CC(=O)Nc2ccc3c(c2)CCC3)CCO1 | -4 | 0.77
CC(C)(C)OC(=O)NC[C@H]1CCCN1c1ncc(Cl)cn1 | -20 | 2.82
CC(C)c1cnc(COc2ccccc2C(N)=O)o1 | 5 | -0.65
CCC(NC(=O)N1CCC(C(=O)N(C)C)C1)C1CC1(C)C (configuration not stated) | 4 | -0.47
Cc1ccc(S(=O)(=O)c2ncccc2CN2CCN(c3ncccn3)CC2)cc1 | -17 | 1.54
COCCC1(CNS(=O)(=O)[C@H]2C[C@@H](C(=O)OC)C2)CCCC1 | -33 | 3.93
O=C(O)c1cccnc1CN1CCC(Cc2cccc(F)c2F)CC1 | -15 | 1.65
O=C(Nc1nc2c(s1)CCCC2)c1cc(O)nc2ccccc12 | 4 | -0.7
Cc1ccc(S(=O)(=O)NCc2nn(C3CCCC3)c(=O)c3ccccc23)cc1 | -12 | 1.56
Cc1cc(NC(=O)N[C@H](CCO)c2ccccc2)ccc1N(C)C | -26 | 2.36
CCCCc1noc(CN2C(=O)CN(C=Cc3ccccc3)C2=O)n1 | -21 | 1.9
CCOC(=O)C1CCCN(C(=O)CC2(c3ccccc3)CC(=O)N(CCc3ccccn3)C2=O)C1 (configuration not stated) | 11 | -1.45

SMILES | % Inhibition [%] | Z score
O=S(=O)(NC1(c2ccccc2F)COC1)c1cnc2n1CCC2 | -1 | 0.12
COc1cccc(CO[C@H]2CN(CC(C)C)C(=O)CN(C(=O)c3cscn3)C2)c1 | -16 | 2.09
CNC(=O)Nc1ccccc1Br | -11 | 2.3
N#C[C@@](CCc1ccccc1)(c1ccccc1)c1cnccn1 | 13 | -1.53
O=C1CCC2(CCNCC2)CN1[C@@H](Cc1ccccc1)c1ccccc1 | 0 | -0.04
CC(=O)Nc1ccc(-c2cnc(C3CCOCC3)o2)cn1 | -6 | 0.67
CN(CCCn1ccnc1)C(=O)c1ccnc(N(C)C)c1 | -12 | 1.13
COc1cc(Cl)c(Cl)cc1NC(=O)NCCCO | 6 | -0.63
N#CCC1(COC(=O)c2cnn(-c3ccccc3)n2)CC1 | -15 | 2.82
Cn1cccc1C(=O)N1CCC[C@H](CCc2noc(-c3cccnc3)n2)C1 | 5 | -0.77
Cn1ncnc1Cn1cnn(C(C)(C)C)c1=O | -1 | 0.09
CCOc1cc([C@H]2CC(=O)Nc3c(S(=O)(=O)c4ccc(Cl)cc4)csc32)ccc1OC(C)C | -1 | 0.13
Cc1nc2ccccc2n1CCNC(C)C1CN(C)CCN1C (configuration not stated) | -10 | 1.28
CS(=O)(=O)c1ccc(-c2nnc(NC(=O)c3cccc4ccccc34)o2)cc1 | -19 | 2.44
CCn1cc(C(=O)N2C[C@@H]3C[C@H]2CN3c2ccccc2)nn1 | -9 | 1.48
Cc1cc(NCCc2noc(C(C)C)n2)cc(C)n1 | -9 | 1
Cc1ccc(C(C)C)cc1OC(=O)c1ccc2nccnc2c1 | -12 | 1.74
CCC(C)C(NCCC(=O)c1ccc(Cl)cc1)C(=O)O (configuration not stated) | -10 | 1.57

Source: ChEMBL document CHEMBL4888484, “Replenishing the malaria drug discovery pipeline: Screening and hit evaluation of the MMV Hit Generation Library 1 (HGL1) against asexual blood stage Plasmodium falciparum ,using a nano luciferase reporter read-out” (2022)
